Values marked as one replicate rest on one cluster of the flow cell; about a third of the high ones do not repeat.
Test system: ATP
Assay: switch fluorescence ratio, 500 uM ATP over buffer (Cy3 cluster intensity, sum of 5 cycles each) (fold (ratio)); higher = stronger signal-on switching upon ATP binding; sequences stand for … in TCGTCGGCAGCGTCAGATGTGTATAAGAGACAGTTTTTTTTTTTTTTTTTTTTTTTTT…TC
Details: aptamer strand: ATP DNA aptamer (quencher-CACCTGGGGGAGTATTGCGGAGGAAGG + anchor), 100 nM annealed; ATP concentration: 500 uM; one replicate
In short: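 Clusters with intensities outside 100-1000 RFU were excluded. The remaining Cy3-labelled switching-strand clusters on a modified Illumina MiSeq flow-cell had been annealed to 100 nM quencher-labelled ATP aptamer and imaged in selection buffer, then after 15 min with 500 uM ATP at 22 °C, for five cycles separated by NaOH stripping and re-annealing. The fluorescence ratio, averaged per switch-domain sequence, is each cluster's summed target-cycle Cy3 intensity over its summed buffer-cycle Cy3 intensity.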
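Also: ATP exposure 15 min at 22 °C before imaging.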

Row | Sequence | switch fluorescence ratio
1 | TATAGTGAAT | 0.975
2 | AAATAATGAG | 0.947
3 | CTCTTAAAAA | 0.949
4 | CGCAGAACCG | 0.981
5 | GATATTGGTA | 1.03
6 | TTATTGAAGT | 1.02
7 | AAACTAAACC | 1.1
8 | GGCTTAGTGA | 1.02
9 | TCATGATCTT | 0.984
10 | AACTCTGCT | 1.05
11 | TGACTGGCGG | 1.04
12 | TGCGAAATAG | 1.53
13 | GGGCACTCTG | 0.986
14 | TCCGGCGCTG | 1.52
15 | ACTGCATCAT | 1.1
16 | ACGTTAATAG | 1.24
17 | TTATGACGTT | 1.07
18 | TCCGTACCTT | 1.15
19 | GAGGCCACTG | 1.07
20 | TGCCGTCGG | 1.06
21 | TGAAAAAAGC | 1.02
22 | CGGCGAGTGT | 1.01
23 | CGCTTCATGA | 1.03

Row | Sequence | switch fluorescence ratio
24 | TAACGACCCG | 1.06
25 | TTAACAACCG | 1.02
26 | GAAAGCGAGG | 0.979
27 | CCCCTAAAGC | 1.02
28 | GCGGTTTGTT | 0.962
29 | TTGATTGTAT | 0.995
30 | GGGAGGTCTT | 0.994
31 | GGGGATTGTA | 0.987
32 | ACATGTGCCA | 1
33 | CTCATGCATG | 0.993
34 | ATAGCTAGA | 0.993
35 | GCAGACGGTC | 1.07
36 | TTGCGTCTCA | 1.02
37 | CCAGGGCGTC | 0.971
38 | TCGCACTGGG | 1.12
39 | ACACCTTTAG | 1.03
40 | CTTGATATGG | 1
41 | AACCTCAGCT | 1.17
42 | TTGGCCCGTC | 0.992
43 | AGAGTCATAT | 1.01
44 | GGACCACTTC | 1.03
45 | GTCAGTTTGG | 0.995
46 | CCGTTTGCAC | 2.15

Row | Sequence | switch fluorescence ratio
47 | TGCTACTGCT | 1
48 | CTCGTTTTT | 0.974
49 | CCATAAAATG | 1.02
50 | ACAAGATATG | 1.02
51 | ACTACCAGTG | 3.76
52 | CTCAGGGTCG | 1.01
53 | ACCAATATTT | 0.987
54 | GGGGCCCTG | 0.991
55 | GATAGAGGT | 1.01
56 | GGCCCACACT | 1.05
57 | GTGGATTGTT | 0.973
58 | GCTCTGGGAT | 1.33
59 | TACAATGGAG | 1.02
60 | GATTTTCTTA | 0.998
61 | CGCGCCAGAG | 1.03
62 | CTCGATGGTA | 1.01
63 | CTATATGTTT | 1.02
64 | CTATACAAGT | 1.01
65 | TTTGTGACTC | 1.02
66 | AACCAGATAT | 0.997
67 | AGGTCTGCGT | 1.03
68 | ATGGCGGTTT | 0.989
69 | CTACGAATAT | 1.27

Row | Sequence | switch fluorescence ratio
70 | CGCCCGGGAG | 1.11
71 | GAAAAGTTG | 1.16
72 | GCGTCGAGT | 1.01
73 | GAATTGCTCC | 1.04
74 | TGCCGGAAAG | 1.01
75 | CCTAATGCGT | 1.08
76 | AAATCGCTGT | 0.949
77 | GGTCGAGGTC | 0.957
78 | AGTCGGGAAT | 0.985
79 | TGATGGGTCG | 0.982
80 | AGCCAGTAA | 0.985
81 | GCTCCGGAGC | 1.06
82 | GGTTAAGCTG | 1.03
83 | AACCTAGTTT | 1.05
84 | GGTGCTTACG | 0.985
85 | CCGCGATTGT | 6.35
86 | CTCTCCTCTA | 1.22
87 | ACAAATGCTC | 1.06
88 | TTAAGGTGGT | 1.01
89 | TTTTTCGCGC | 1.08
90 | ATATAACGTA | 1.11
91 | GGAAATTTTC | 1.03
92 | GGGATGTGCA | 1.02

Row | Sequence | switch fluorescence ratio
93 | CAGCCAAGGG | 1.01
94 | CGACCGAGT | 1.06
95 | TGGGGCAGA | 0.993
96 | GTTGGCGATG | 0.942
97 | CAAGTGACAA | 0.973
98 | GTTCGGTCTT | 0.98
99 | TGGCCCAAGC | 1.01
100 | GGGAACTGAA | 1.23
101 | CGGTCCACAT | 1.02
102 | CGTGTTACAC | 1.01
103 | GATTAGTCTT | 0.988
104 | GCACTCTATA | 1.04
105 | GGAGCAAACA | 2.41
106 | ATATTCTCGC | 1.02
107 | GTCAAAGAGG | 1
108 | GCCTAAATTC | 0.98
109 | TGACAGCTGG | 0.939
110 | TTAAATATCC | 0.999
111 | GTTTTCGTTA | 1.01
112 | TCGTATTCTT | 0.997
113 | ATTGGTTGAA | 0.986
114 | CAAGCATGCC | 1.03
115 | CTGCATCTGT | 1.03

Row | Sequence | switch fluorescence ratio
116 | TTGTCTCGGG | 1.02
117 | GGGGCTAGAA | 1.01
118 | TCTGGCTCTA | 1
119 | ACCGGCGTGC | 1.04
120 | ACAGTGTAT | 1.05
121 | AACTCCGGCT | 1.01
122 | ACAGACAACT | 1.14
123 | TATGGTTGTC | 1.06
124 | ATTACTGATT | 0.992
125 | TGGTGATTGA | 0.988
126 | GCTCGACCGT | 1
127 | AATTTTGGGG | 0.985
128 | AAGGTAATCT | 0.965
129 | GTGGTAGATC | 1.1
130 | TTTTTAGCCT | 0.977
131 | ATAGGGACCA | 1.06
132 | TGTCTGAGGT | 0.971
133 | CAGAGAGTCT | 1.07
134 | CTCAGCGGTT | 1.32
135 | GCAGGTGATT | 0.978
136 | GAACTCCGGA | 1.55
137 | ACTTAGTCAC | 1.09
138 | TATGAAGATG | 0.997

Row | Sequence | switch fluorescence ratio
139 | TGCTTGTTTG | 0.993
140 | TGTTTCAGTA | 0.964
141 | AGCCCGAATC | 1.03
142 | GAACGGCTGG | 0.954
143 | TTGTCACAG | 0.976
144 | CTAGTATGTG | 0.914
145 | CATGTTTAGT | 0.982
146 | GCGCTTGGTT | 1.02
147 | TAAGAGATGA | 1.01
148 | GTGTGGCCCG | 1.02
149 | GGGCGAACTC | 1.03
150 | GTGACTCCAG | 1.05
151 | ATGTAGGCAA | 1.21
152 | AAATATGACC | 1.06
153 | CTATGTTTCC | 1
154 | CGATCGGCTT | 1.04
155 | GCAGGCGGTC | 0.995
156 | CGAATGCGTC | 1.04
157 | CGCTATTAAC | 3.12
